Data taken from PubChem BioAssay AID686978 (National Center for Advancing Translational Sciences (NCATS), 2013).
Out of some 420,000 compounds screened, about 64,000 (15%) were called active. The inconclusive results got no clear call from the source; some entries with a clear call stand among them for comparison. The call rests on the fitted dose curve; in most records, active means well fitted inhibition curve with a large enough effect; inconclusive means small, poorly fitted or top-dose-only effect; inactive means flat fitted curve, though single readings scatter. Potencies of inconclusive entries are left out as doubtful fits.

assay: qHTS for Inhibitors of human tyrosyl-DNA phosphodiesterase 1 (TDP1): qHTS in cells in absence of CPT; details: DT40 Tdp1-/- hTDP1 cells, no CPT, ATP luminescence, 48 h; activity change, negative = growth inhibition: at 46.2 µM (top of the series); further: nearly all actives have a fitted effect of over 55% in size
Procedure, shortened: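 Growth kinetics read by CellTiter-Glo luminescence after ≥48 hr at 37 °C. Cells: DT40 Tdp1-/- stably carrying human TDP1, 400 per well, compound exposure in the absence of CPT (DMSO vehicle).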
On the % scale 0 is the no-effect control and ±100 the full control effect; potency means the concentration at half of the fitted maximal effect; tags describe the fitted curve by direction and shape.

| Structure (SMILES) | activity change, negative = growth inhibition | Potency |
| --- | --- | --- |
| COc1cc(C(=O)N2CCC(C(N)=O)CC2)ccc1OCc1c(C)noc1C | inactive: 2.67% |  |
| CN1c2ccc([N+](=O)[O-])cc2C(C)(C)C12C=Cc1cc(C(=O)O)ccc1O2 (stereo unspecified) | inactive: 13.4% |  |
| Cc1ccc(S(=O)(=O)N2CCN(c3ccccc3)CC2)c(C)c1 | inactive: -10.6% |  |
| COc1ccccc1C(=O)Nc1ccc2c(c1)CCCN2C(=O)c1ccccc1 |  | active: 13 µM |
| Cc1cc(C)c(C)c(OCCCCn2cnc3ccccc3c2=O)c1 |  | inconclusive [inhibitor, single point] |
| Cc1nonc1C(=O)N/N=C/c1ccc([N+](=O)[O-])o1 |  | active: 18.4 µM |
| CCn1nc(-c2ccccc2)c(-c2ccccc2)c(C(=O)Nc2ccc(S(N)(=O)=O)cc2)c1=O |  | inconclusive [inhibitor, single point] |
| COc1cccc(OC)c1C(=O)Nc1ccc(N2CCN(C(=O)c3cccs3)CC2)cc1 | inconclusive: -30.9% [inhibitor] |  |
| Cc1ccc(OCC(=O)N(Cc2cccs2)C2CCS(=O)(=O)C2)cc1 (stereo unspecified) | inactive: -6.79% |  |
| CC(CN1CCOCC1)OC(=O)c1ccccc1 (stereo unspecified) | inactive: -6.99% |  |
| CCCCCCC(=O)Nc1nc(C)c(-c2csc(Nc3ccc(Cl)cc3)n2)s1 |  | active: 4.61 µM |
| CCCCOC(=O)C1C2CCC(O2)C1C(=O)OCC (stereo unspecified) | inactive: 3.48% |  |
| Cc1ccc(NC(=S)c2nc3ccccc3[nH]2)cc1 |  | active: 10.3 µM |
| CNS(=O)(=O)c1ccc2ccccc2c1 | inactive: 5.02% |  |
| CC(=O)Nc1ccc(S(=O)(=O)N(C)c2ccc(OCC(=O)OCC(=O)Nc3ccc(OC(F)F)cc3)cc2)cc1 | inactive: -2.77% |  |
| Cc1c(C(=O)NNC(=O)c2cccnc2)cccc1[N+](=O)[O-] | inactive: -27% |  |
| COc1cc(/C=C2\SC(=O)NC2=O)ccc1Oc1cnccn1 | inactive: -9.45% |  |
| CN1CCN(c2ccc([N+](=O)[O-])c(Sc3nc4ccccc4[nH]3)c2)CC1 |  | inconclusive [inhibitor, partial curve] |
| Cc1cc(C)c(NC(=O)CSc2nc3ccccc3c3nc(CCn4cncc4C)nn23)c(C)c1 |  | active: 14.6 µM |
| O=C(N/N=C/c1c[nH]c2ccc(Br)cc12)c1ccc2c(c1)OCO2 |  | inconclusive [inhibitor, single point] |
| CCN1CCN(C(=O)c2ccc3c(c2)N(Cc2cccc(Cl)c2)C(=O)c2ccccc2S3=O)CC1 (stereo unspecified) |  | active: 20.6 µM |
| CC(=O)N1CCN(c2ccccc2NC(=O)COc2ccccc2C)CC1 |  | inconclusive [inhibitor, partial curve] |
| CC(C)(CO)Nc1nc(Cl)nc(NC2CCCCC2)n1 |  | inconclusive [inhibitor, single point] |
| c1ccc(COc2ccc(OCCN3CCCC3)cc2)cc1 |  | inconclusive [inhibitor, single point] |
| CCN(CC)CCCNc1cc(-c2ccccc2)nc(C)n1 | inactive: 3.46% |  |
| COc1cccc(CNc2nc(NC(C)C)nc3ccsc23)c1 |  | inconclusive [inhibitor, partial curve, poor fit] |

| Structure (SMILES) | activity change, negative = growth inhibition | Potency |
| --- | --- | --- |
| CN(Cc1nc2ccccc2c(=O)[nH]1)C(=O)c1ccc(S(=O)(=O)N2CCCC2)cc1 | inactive: -2.79% |  |
| Cc1cccc(C(C)C)c1NC(=O)CN(C)Cc1cccc(F)c1 |  | active: 23.1 µM |
| COc1ccc(CCNC(=O)CSc2nc3nc(C)c(Cc4ccc(C)cc4)c(C)n3n2)cc1OC |  | active: 20.6 µM |
| COCCNC(=O)C1CCCN(Cc2ccc(C)cc2)CC1 (stereo unspecified) | inactive: -0.654% |  |
| COc1ccc(Cl)cc1Nc1cc(C)nc2ccccc12 |  | active: 14.6 µM |
| COc1ccc(/C=N/NC(=O)c2nonc2C)cc1 | inactive: -5.26% |  |
| COc1ccccc1N(CC(=O)N1CCN(c2ccc(F)cc2)CC1)S(=O)(=O)c1ccc(C)cc1 |  | active: 18.4 µM |
| COc1ccc(-n2cc(C(=O)N(CCN(C)C)Cc3ccccc3)c3ccccc3c2=O)cc1 |  | inconclusive [inhibitor, single point] |
| CCN=C(NCC)SC1CC(=O)N(c2ccc(F)cc2)C1=O (stereo unspecified) | inactive: -6.99% |  |
| Cc1cnc(SCC2CCCO2)nc1C1CCCN(Cc2cc3c(cc2Cl)OCO3)C1 (stereo unspecified) |  | inconclusive [inhibitor, single point] |
| O=C(N/N=C/c1c[nH]c2ccccc12)c1cccs1 | inactive: -25.7% |  |
| Cc1ccc(N(CC(=O)Nc2cccc(Cl)c2C)S(=O)(=O)c2c(C)noc2C)cc1 |  | inconclusive [inhibitor, single point] |
| O=C(CSc1nc(=O)n(CCN2CCOCC2)c2c1CCCC2)Nc1ccc([N+](=O)[O-])cc1 |  | inconclusive [inhibitor, single point] |
| COc1ccc(CNC(=O)CS(=O)Cc2nc(-c3ccc(OC)c(OC)c3)oc2C)cc1 (stereo unspecified) |  | inconclusive [inhibitor, single point] |
| Cc1ccc(NC(=O)NCc2ccccn2)c(C)c1 | inactive: 11.3% |  |
| CCCCOCCCNC(=O)C[C@@H]1C[C@@]2(C(=O)OC)CC(C)(C)CC=C2N(CCc2ccc(OC)c(OC)c2)C1=O |  | active: 14.6 µM |
| COC(=O)c1cc(OC)c(OC)cc1NC(=O)CCCCCN1C(=O)CCC1=O |  | inconclusive [inhibitor, single point] |
| Cc1cccc(Oc2nc3ccccn3c(=O)c2/C=C(\C#N)C(=O)NC2CCS(=O)(=O)C2)c1C (stereo unspecified) |  | inconclusive [inhibitor, single point] |
| O=C(COc1ccccc1[N+](=O)[O-])Nc1ccc(CN2CCOCC2)cc1 | inactive: -27.4% |  |
| CCN(CC)c1ccc(/C=N\NC(=O)c2cccc3cc[nH]c23)cc1 |  | active: 2.91 µM |
| CN(CC(=O)Nc1ccc(Cl)cc1F)C1=NS(=O)(=O)c2ccccc21 | inactive: -19.4% |  |
| Cc1noc(C)c1NC(=O)Nc1ccc2c(c1)C(=O)N([C@H](C)CO)C[C@H](C)[C@@H](CN(C)S(=O)(=O)c1ccccc1)O2 | inactive: -16.6% |  |
| O=C1N=C(N2CCN(Cc3ccccc3)CC2)S/C1=C/c1cccs1 |  | active: 11.6 µM |
| Cc1ccc(/C=C(\NC(=O)c2ccc(C)cc2)c2nc(=S)[nH][nH]2)cc1 |  | inconclusive [inhibitor, single point] |
| Cc1cc(C)n(CC(=O)NNC(=O)CCCOc2ccc(Cl)cc2C)n1 | inconclusive: -30.9% [inhibitor] |  |
| Cc1ccccc1NS(=O)(=O)c1ccc(S(=O)(=O)N2CCCC2)cc1 |  | inconclusive [inhibitor, single point] |

| Structure (SMILES) | activity change, negative = growth inhibition | Potency |
| --- | --- | --- |
| CCc1nc2ccccc2n2c(-c3ccccc3)c3c(=O)n(C)c(=O)n(C)c3c12 |  | active: 20.6 µM |
| COc1ccc(-n2c(=O)c3c4c(sc3n(Cc3ccc(C)cc3C)c2=O)CCC4)c(OC)c1 |  | inconclusive [inhibitor, single point] |
| CCOC(=O)C1=C(C)NC(=S)NC1c1ccc(OC(=O)c2ccco2)cc1 (stereo unspecified) | inactive: -25% |  |
| COc1ccccc1CNc1nc(NCc2ccccc2F)c2sccc2n1 |  | active: 4.11 µM |
| CCOC(=O)c1csc(NC(=O)CSc2nnnn2-c2ccc3c(c2)OCCO3)n1 |  | inconclusive [inhibitor, single point] |
| Cn1cc(/C=C/c2cc[n+](C)cc2)c2cc(Cl)ccc21 |  | active: 0.731 µM |
| Cc1ccc(S(=O)(=O)Nc2ccc(NC(=O)Nc3cccc(C(F)(F)F)c3)cc2)cc1 |  | inconclusive [inhibitor, single point] |
| CCc1c(C)nc2nncn2c1Nc1ccc(Cl)cc1 |  | active: 9.2 µM |
| CC1=CC(=C2C(=O)c3ccccc3C2=O)C=C(C)O1 |  | inconclusive [inhibitor, partial curve] |
| CCC(=O)N1CCc2cc(S(=O)(=O)NCCC(=O)NCc3ccc(F)cc3)ccc21 |  | inconclusive [inhibitor, partial curve, poor fit] |
| O=C(NNC(=O)c1ccccc1Br)c1cnccn1 |  | inconclusive [inhibitor, single point] |
| O=S(=O)(c1cccs1)N1CCCc2cccc(O)c21 |  | inconclusive [inhibitor, single point] |
| CCCCCNc1nc(NCCCO)c(C#N)c2c1CN(C)CC2 |  | inconclusive [inhibitor, single point] |
| Cc1cc(C(=O)CSc2nc3ccccc3c(=O)[nH]2)c(C)n1C |  | active: 6.51 µM |
| Cc1sc2nc(CSc3ccc([N+](=O)[O-])c(C(F)(F)F)c3)[nH]c(=O)c2c1C |  | inconclusive [inhibitor, single point] |
| CC1CCCC(C)N1S(=O)(=O)c1ccc(S(=O)(=O)NCCc2ccncc2)cc1 (stereo unspecified) |  | inconclusive [inhibitor, single point] |
| CC1(C(=O)NCC2CCOCC2)Cc2c(-c3cccc(C(N)=O)c3)ccnc2O1 (stereo unspecified) |  | inconclusive [inhibitor, single point] |
| Cn1c(CN2CCCCC2)nc2cc(NS(=O)(=O)c3ccc(Cl)cc3)ccc21 | inactive: -21.9% |  |
| COc1ccc(OC)c(CNC(=O)Cn2ncc3c([nH]c4ccc(C)cc43)c2=O)c1 | inactive: -3.28% |  |
| CC(Oc1ccc(F)cc1)C(=O)Nc1cc(S(=O)(=O)N2CCOCC2)ccc1N1CCCCC1 (stereo unspecified) |  | active: 16.4 µM |
| CCOC(CNC(=O)CCc1c(C)nc2nc(C)nn2c1C)OCC | inactive: 0.169% |  |
| CCC(C(=O)Nc1ccc(C(C)=O)cc1)n1cnc2nc3c(cc2c1=O)CCCC3 (stereo unspecified) |  | inconclusive [inhibitor, single point] |
| COc1cccc(CN(C)C(=O)c2ccc(NS(=O)(=O)c3ccc(F)cc3)cc2)c1OC |  | inconclusive [inhibitor, single point] |
| CCN(Cc1ccccc1)C(=O)COC(=O)c1cc(Cl)nc(Cl)c1 | inactive: -14.2% |  |
